Experimental data as given in PubChem BioAssay AID488969 (Vanderbilt High Throughput Screening Facility, 2010).
Over roughly 110,000 compounds, “z-score” has its median near -0.1; the highest 2% begin near 2. The list shows a part of the results. Active and inactive are the calls of the source.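 The calls were made as follows: active = z-score in the third read window above 3 or below -3; inactive = the rest.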

Molecular target: Metabotropic glutamate receptor 8 (Rattus norvegicus) (UniProt P70579)
Sequence of UniProt P70579 (P70579 whole entry, looked up): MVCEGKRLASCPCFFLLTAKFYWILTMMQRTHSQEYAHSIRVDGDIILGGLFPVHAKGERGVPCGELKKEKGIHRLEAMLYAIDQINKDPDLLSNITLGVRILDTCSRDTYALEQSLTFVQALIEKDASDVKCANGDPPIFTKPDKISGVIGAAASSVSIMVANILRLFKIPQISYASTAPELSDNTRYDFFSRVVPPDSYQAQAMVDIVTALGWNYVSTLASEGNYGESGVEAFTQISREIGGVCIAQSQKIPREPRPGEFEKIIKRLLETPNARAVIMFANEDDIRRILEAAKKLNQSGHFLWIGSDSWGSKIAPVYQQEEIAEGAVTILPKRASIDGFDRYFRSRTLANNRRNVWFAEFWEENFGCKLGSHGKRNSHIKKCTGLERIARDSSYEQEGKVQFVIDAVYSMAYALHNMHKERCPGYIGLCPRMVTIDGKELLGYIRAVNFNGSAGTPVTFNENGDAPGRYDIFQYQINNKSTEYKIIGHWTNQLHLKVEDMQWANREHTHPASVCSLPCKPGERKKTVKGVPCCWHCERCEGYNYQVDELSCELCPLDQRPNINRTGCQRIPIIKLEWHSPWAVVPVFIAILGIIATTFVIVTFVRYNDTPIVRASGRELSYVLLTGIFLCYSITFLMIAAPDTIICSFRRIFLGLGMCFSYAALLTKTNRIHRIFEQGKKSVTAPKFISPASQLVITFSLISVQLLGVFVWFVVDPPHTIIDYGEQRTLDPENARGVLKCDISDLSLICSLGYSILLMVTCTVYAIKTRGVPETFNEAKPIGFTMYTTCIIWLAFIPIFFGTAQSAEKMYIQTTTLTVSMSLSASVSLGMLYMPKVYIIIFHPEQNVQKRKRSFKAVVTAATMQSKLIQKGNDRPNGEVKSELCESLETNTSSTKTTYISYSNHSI
Assay: mGluR8 Gi/Go-coupled signaling modulation – cell-based, rat, thallium flux, HTS, primary screen (AID 488969)
Conditions: HEK293 rat mGluR8, GIRK (G protein-gated inwardly rectifying potassium channel) thallium flux, FluoZin2; at 10 µM; stronger effect = higher value; submaximal glutamate (EC20) added with thallium

Compound | z-score
COc1cc(/C=C/C(=O)Nc2ccc(C(C)=O)cc2)cc(OC)c1OC | -0.984
Cc1cc(C)n2c3c(c(C#N)c2n1)CCCC3 | -1.08
CC(=O)OC(C(=O)NC1CCCCC1)c1ccc(Cl)cc1 (stereo not given) | -0.136
O=[N+]([O-])c1cc(Cl)ccc1NCCNc1ncc(C(F)(F)F)cc1Cl | 0.0771
O=C(Nc1ccccc1N1CCOCC1)c1cnccn1 | -0.146
CCOc1ccc(NC(=S)N2CCc3cc(OC)c(OC)cc3C2COc2ccc3c(C)cc(=O)oc3c2)cc1 (stereo not given) | -0.257
Cc1cc2nc(C3CCCN(C(=S)Nc4ccccc4C)C3)[nH]c2cc1C (stereo not given) | -0.278
c1ccc(Cc2nnc3sc(-c4ccco4)nn23)cc1 | -0.35
O=C(COc1ccc2c(-c3ccccc3)cc(=O)oc2c1)NCc1cccs1 | -0.241
CC(=O)c1cc(-c2ccc(F)cc2)n(CCC(=O)Nc2cc(C)[nH]n2)c1C | -0.277
CCCN(CC(=O)Nc1c(C)cccc1CC)C(=O)SCC | -1.26
O=C(Nc1ccccc1)N1CCc2ccccc21 | -0.39
COC(=O)[C@H](C)NC(=O)NCc1ccc(F)cc1 | 0.136
CN(C)c1ccc(C(CNC(=O)c2ccc(F)cc2)c2c[nH]c3ccccc23)cc1 (stereo not given) | -0.679
CCc1ccc2c(COC(=O)CNS(=O)(=O)c3ccc(NC(C)=O)cc3)cc(=O)oc2c1 | -0.405
Cc1nn(CC(=O)NCc2cc3ccccc3[nH]2)c(C)c1[N+](=O)[O-] | -0.249
CCC(Sc1nc2ccccc2o1)C(=O)Nc1nnc(C)s1 (stereo not given) | -0.41
CSc1ccccc1NC(=O)c1ccncc1 | -0.0118
CC(=O)Nc1nc(-c2ccccc2)c(-c2ccccc2)o1 | -0.185
CCCCNC(=O)c1cc([N+](=O)[O-])[nH]n1 | 0.198
CCC(=O)Nc1cccc(-c2cnc3ccccc3n2)c1 | -0.216
CCOc1cc(/C=C2\N=C(SC)SC2=O)cc([N+](=O)[O-])c1OC(C)=O | -1.23
O=C(CO/N=C1\CCCc2nonc21)Nc1ccc(Br)cc1 | -0.00511
Cc1ccc(-c2cc(C(F)(F)F)n3nc(C(=O)NCCCn4ccnc4)cc3n2)cc1C | -0.0956

Compound | z-score
CSc1ccccc1C(=O)Nc1cccc(C(C)=O)c1 | active: 3.03
Cc1c(Cl)c([N+](=O)[O-])nn1CCCC(=O)Nc1sc2c(c1C#N)CCC2 | -0.0641
COc1ccc(CN(C)C2c3ccccc3-c3ccccc32)cc1 | 0.198
COc1ccc2c(c1)c(=O)oc1c(C)c3occ(C)c3cc12 | 0.586
CC(C)CN(Cc1c(O)ccc2c3c(c(=O)oc12)CCC3)CC(C)C | -0.353
CC(C)C(NS(=O)(=O)c1ccc2c(c1)oc(=O)n2C)C(=O)N1CCN(C2CCCCC2)CC1 (stereo not given) | 1.75
N=c1sccn1CC(=O)Nc1ccc(S(=O)(=O)N2CCOCC2)cc1 | 2.19
COc1cccc(N(C(=O)c2ccn[nH]2)C2(C(=O)Nc3c(C)cccc3C)CCCCC2)c1 | -0.274
COc1ccc(C(C)(C)C)cc1NC(=O)COC(=O)c1cnc(C)cn1 | -0.58
CCOC(=O)C1=NNC(C(=O)c2ccc(C)cc2)C1c1ccc(C)cc1 (stereo not given) | -0.512
Cc1ccc(Cl)cc1N1CCN(CC(=O)Nc2ccc3[nH]c(=O)[nH]c3c2)CC1 | -0.296
COc1cc(C(=O)Nc2ccc(S(=O)(=O)NC(C)(C)C)cc2)cc(OC)c1OC | -0.258
O=C(NC1CCCCC1)NC1CC2CCC(C1)N2Cc1nnnn1Cc1ccc2c(c1)OCO2 (stereo not given) | -0.0503
COc1ccccc1-n1cnc2cc(NC(C)=O)ccc21 | -0.155
COc1ccc(C)cc1S(=O)(=O)N(CC(=O)O)c1ccc(C)cc1 | 0.667
N#Cc1cc2c(nc1SCC(=O)N1CCCCC1)CCCC2 | 0.0183
N#CCCn1c(=S)[nH]c2ccccc21 | -0.232
O=C(NC1CCCCC1)N1CCN(C(=O)c2ccco2)CC1 | 0.0358
CS(=O)(=O)N(CC(=O)NCc1ccc2c(c1)OCO2)Cc1ccc(Cl)cc1 | -0.196
Cc1ccccc1NC(=O)c1ccc(N/N=C/c2ccccc2O)c([N+](=O)[O-])c1 | 0.382
CN1C(=O)N(C)C2C1N(C)S(=O)(=O)N2C (stereo not given) | -0.0354
Cc1ccc2nc(Cl)c(C3CC(c4cccs4)=NN3S(C)(=O)=O)cc2c1 (stereo not given) | 0.644
Cc1ccc(C(O)c2cccnc2)o1 (stereo not given) | 0.0139
O=c1cc(O)c2c(=O)[nH]c(=O)n(-c3ccccc3)c2[nH]1 | -0.269

Compound | z-score
CS(=O)(=O)N(CC(=O)N1CCOCC1)c1ccc2c(c1)OCO2 | -0.0813
COc1ccc(C(c2nnnn2CCc2ccccc2)N2CCN(C3CCCC3)CC2)cc1 (stereo not given) | 0.507
CCOc1ccc(NC(=O)CSc2nnc(-c3ccccn3)n2C)cc1 | -0.36
COc1ccc(CCNC(=O)C2CCN(S(C)(=O)=O)CC2)cc1OC | -0.183
COC(=O)c1[nH]c2ccccc2c1NS(=O)(=O)c1ccc(OC)cc1OC | 0.156
CCn1c(=O)[nH]c(=O)c2c(N)c(C(=O)c3ccccc3OC)sc21 | -0.704
COc1ccc(N2CCN(C(=O)CN3C(=O)C4CC=CCC4C3=O)CC2)cc1 (stereo not given) | 0.292
O=C(N1CCCCCC1)N1CCN(S(=O)(=O)c2ccccc2)CC1 | -0.149
Oc1ccc(Nc2nc(N3CCCC3)c3ccccc3n2)cc1 | 0.808
COc1ccc(C2CC(C(F)(F)F)n3nc(C(=O)O)c(Br)c3N2)cc1 (stereo not given) | 0.00244
CN(C)S(=O)(=O)c1ccc2c(c1)c(=O)c(C(=O)N1CCN(c3ccccn3)CC1)cn2C | -0.186
Fc1ccccc1/C=C/c1ccc2ccccc2n1 | -0.208
COc1cc(NC(=O)CSc2nccc(C)n2)c(C)cc1[N+](=O)[O-] | -2.71
Cc1ccc(-n2nc(-c3cccnc3)cc2C(=O)N2CCOCC2)c(C)c1 | 0.372
Cc1ccc2c(c1)-c1c(ssc1=S)C(C)(C)N2C(=O)CSc1nncn1C | 0.393
CCS(=O)(=O)NCCc1csc(C)n1 | -0.505
CCOC(=O)C1CCN(CC(=O)Nc2cc(C)nn2-c2nc3ccccc3s2)CC1 | 0.133
Clc1ccc(Cn2ncc3c(N4CCOCC4)ncnc32)cc1 | -0.566
Cc1ccc(C(=O)Oc2cccc(NC(=O)c3cccs3)c2)cc1S(=O)(=O)N1CCOCC1 | -0.722
CCOC(=O)CSc1ncc(OC)c(=O)[nH]1 | 0.073
COCCCNCCCOc1ccc(Cl)cc1Br | active: 3.75
Cc1[nH]c2ccccc2c1/C=C/c1cc[n+](C)cc1 | -0.934
